The campaign covered roughly 150,000 compounds. About 540 (0.36%) showed an effect of 50% or more. Some of the results follow.
Tested on: Plasmodium falciparum
Test: Primary screen in NF54 nanoGlo assay, in single point, at 2uM, 72h; a lower Z score goes with more inhibition
Type: functional, Erythrocyte
Details: timepoint 72 hour

Structure (SMILES)	% Inhibition [%]	Z score
Cc1cccc(CN2CCC[C@@](O)(CN3CCCCO3)C2=O)c1	-5	0.78
Cc1cc(NC(=O)NCc2cc[nH]n2)no1	-7	1.32
Cc1ccnc(NCCn2cnc3nccnc3c2=O)c1	-7	1.32
COCC(O)CNC(=O)C(C)c1ccc(Cl)s1 (stereo not given)	-2	0.29
Cc1cc(C)cc(CN2CCN(C(=O)c3ncc(F)cc3F)CC2=O)c1	2	-0.36
COc1ccc(C(=O)NC(c2ccccc2)[C@H]2C[C@@H](O)C2)c(OC)c1 (stereo not given in full)	5	-0.62
CCOc1ccc(CNC(=O)C2CCN(S(=O)(=O)N3CCC(C)CC3)CC2)cc1OC	-2	0.29
Cc1c(-c2noc(C(=O)NC3CC3)n2)oc2c(C)cccc12	-9	1.19
CN(CCc1cnn(C)c1)c1cc([C@H]2CCOC2)ncn1	4	-0.39
O=C1CC[C@@H](C(=O)N2CCN(c3ccc(F)cn3)CC2)n2cccc21	-9	1.11
CCOc1ccc(C(=O)NCc2nccnc2-c2cccnc2)cc1	-8	0.87
CC(C)Cc1cc(C(=O)Nc2c[nH]nc2-c2nccs2)cc(O)n1	-1	0.11
COc1ccc(C2c3c(-c4ccccc4)nc(N)n3NC(=O)C2C#N)cc1 (stereo not given)	-8	1.02
O=C(c1ccc(C2CCCOC2)cc1)N1CCOC2CCCCC21 (stereo not given)	-9	1.05
O=C(O)[C@H]1[C@@H]2CN(Cc3nc(-c4ccccc4)cs3)C[C@@H]21	-8	0.97
O=C1CCN(C(=O)COCC2CCCO2)C(C2CC2)C1 (stereo not given)	27	-3.47
Nc1nnnn1CC(=O)NCCCc1ccco1	4	-0.66
CN(C)CCn1nccc1NC(=O)CC(C)(C)C#N	-3	0.28
Cc1cc(C(=O)COc2ccc(C(C)C)cc2)c(C)n1[C@H]1CCS(=O)(=O)C1	-5	0.72
O=C1C[C@@H](c2nc(C3CCOCC3)n[nH]2)c2ccccc2N1	-9	1.74
NC(=O)[C@@H]1C[C@@H](F)CN1C(=O)c1ccc2[nH]cnc2c1	8	-0.97
CCC(=O)N1CCCN(Cc2nc3ccccc3c(=O)[nH]2)CC1	-6	0.78

Structure (SMILES)	% Inhibition [%]	Z score
O=C1C2C[C@@H](O)CN2C(=O)N1c1cccc2ccccc12 (stereo not given in full)	-4	0.46
C[C@H]1OCC[C@H]1NC(=O)[C@@H]1CC[C@H](C(=O)N[C@@H]2CCO[C@@H]2C)C1	-1	0.22
O=C(c1ccc2[nH]nnc2c1)N1CCC(n2cnnc2)CC1	-16	1.45
CN(CCC(=O)NC(C)(C)C)Cc1ccon1	-19	1.7
Cc1ccc(C(=O)N2CCC3(CC2)C[C@@H](N2CCN(c4ccccc4)CC2)CCO3)cn1	-27	2.91
CC(C)OC(=O)[C@H](Cc1ccc(O)cc1)NC(=O)C1CCCC(=O)N1 (stereo not given in full)	2	-0.32
COc1ccc(NC(=O)c2csc(COc3ccc4c(c3)[C@H](c3cccc(F)c3)N(C(C)=O)CC4)n2)cc1	-11	0.99
C[C@H]1CCCCN1CCCNC(=O)c1cc2n(n1)CCN(Cc1ccc(Cl)cc1)C2=O	-6	0.68
CCc1nnc(NCCc2ccc3c(c2)CCO3)nc1CC	-17	1.66
O=C(NC1CCN(Cc2cc(F)cc(F)c2)CC1)[C@H](O)C1CCCCC1	-8	1.14
CCn1c(CN2CCc3ccccc3C2)nc2cc(S(=O)(=O)N3CCCCC3)ccc21	-2	0.24
COC(=O)c1cc(Cl)cc(C)c1NC(=O)[C@@H]1CCCCO1	-2	0.43
CCOC(=O)c1cn(C)nc1NC(=O)[C@@H](C)C1CC1	-17	1.87
CCc1nnc2ccc(C(=O)NC[C@H](C)O)cn12	-7	1.18
CCOC(=O)C1CCN(CNC(=O)c2ccccc2)CC1	1	-0.14
CC(C)(C)CNCC(=O)NCc1ccco1	-10	1.26
CC(=O)N[C@H]1CN(c2ncnc(C)c2C)C[C@@H]1c1ccc(C)cc1	-1	0.11
Cc1cc(C(=O)Nc2nc3c(s2)CCCC3)n(C)n1	11	-1.45
NC(=O)CC1CCN(S(=O)(=O)CCc2ccccc2)CC1	-2	0.28
CC(C)N1CCC[C@H](C(=O)N2CCC3(CC2)C(=O)N(C)c2ccccc23)C1	-14	1.27
O=C(NCc1cccnc1-n1ccnc1)c1ccccc1Cl	2	-0.22
CC(C)C[C@@](C)(CO)NCC(=O)NC1CCCC1	10	-1.32

Structure (SMILES)	% Inhibition [%]	Z score
CCN1CCCCc2cc(C(=O)N(C)CCN(C)C)sc21	-14	2.2
C=CCN1C[C@H](C)N(CCn2cc(Cl)cn2)C[C@@H]1C	-5	0.98
CCCn1nnc2cc(S(=O)(=O)N3CCCC[C@H]3C(=O)Nc3cc(OC)ccc3OC)ccc21	-15	1.34
Cn1ccc2cccc(NC(=O)N3CC(C)(CO)C3)c21	30	-4.3
Cc1cnn(Cc2ccccc2Cl)c1NC(=O)N[C@H]1CCC(=O)N(C)C1	11	-1.56
Nc1nc([C@H]2C[C@@H](NC(=O)C(c3ccccc3)c3ccccc3)C2)cc(=O)[nH]1	-11	1.4
CN1CCN2CCN(Cc3ccc(-c4ccco4)cc3)C[C@@H]2C1	-9	1.63
COCC(=O)Nc1cc(-c2ccc3c(c2)CCCC3)nn1-c1ccccc1	-5	0.91
O=S(=O)(NCc1cccc2c1OCO2)c1cnn2c1OCCC2	4	-0.41
O=c1[nH]c2cc(-c3nc(-c4cccnn4)no3)ccc2n1[C@H]1CC[C@H](O)CC1	2	-0.19
O=C1C[C@H](Cn2ccnc2-c2nc3c(s2)CCCC3)CN1C1CC1	-3	0.53
CS(=O)(=O)c1ccc(-c2cccc(O)n2)cc1	-8	1.09
CCN1C(=O)c2cc(NC(=O)C3CCCCC3)ccc2Oc2ccccc21	-9	1
COc1ccc(COCC(=O)N[C@@H](C)[C@H]2COC(C)(C)O2)cc1	-5	1.07
O=C(Nc1cc2n(n1)CCCC2)N1CC(O)(c2cccc(Br)c2)C1	-5	0.7
CC1(C(=O)NCc2ccccc2S(C)(=O)=O)CCOCC1	-2	0.25
O=S1(=O)CCN(Cc2nc(-c3ccncc3)no2)CC1	-13	1.17
CC(C)C(=O)N1CC(OCc2ccccc2Cl)C1	-9	1.53
CCn1nc(C(=O)N2CCCCCC2)c2c1CC[C@H](NCCc1ccccc1F)C2	0	0.03
COCc1nc([C@H](C)NC(C)=O)n(-c2cccc(C)n2)n1	-9	1.21
O=c1[nH]nc(CCn2ccnc2-c2ccncc2)[nH]1	-16	2.14
Cc1cc(C#N)cc(C)c1OCc1nnn(C)n1	-15	2.77

Structure (SMILES)	% Inhibition [%]	Z score
CNC(=O)Nc1cccc(NC(=O)CN(C)C(=O)OC(C)(C)C)c1	9	-1.08
C[C@@H](CN(C)Cc1c(Cl)cccc1C(=O)O)c1nccs1	9	-1
COc1ccc(Nc2nnc(-n3nc(C)cc3C)c3ccccc23)cc1OC	6	-1.11
Cc1nnc(CN(C)C(=O)Nc2ccc(-c3ccc(OC(C)C)cc3)cc2F)o1	-10	1.51
C[C@H](NC(=O)N(C)Cc1n[nH]c2c1CCC2)c1nncn1C	9	-1.18
OC1CCCC1C1CCCN1c1ccc(Br)cn1 (stereo not given)	-7	0.91
CC1CCN(C(=O)[C@H]2CCCN(C(=O)c3nnc(C(=O)Nc4ccc(Cl)cc4)s3)C2)CC1	-25	2.19
Cc1cc(C(=O)N[C@@H](C)c2ccccc2N(C)C)ns1	-14	1.9
CCOCc1nc(CCCn2cncn2)n(C(C)(C)C)n1	-10	0.96
COc1ccc(-c2noc(N(C)CC(=O)Nc3ccc(OC)cc3OC)n2)cc1	3	-0.53
N#CCC1(COC(=O)[C@@H]2COc3ccccc32)CC1	-17	1.98
C[C@H]1c2cc(Cl)c(Cl)cc2CCN1C(=O)c1c[nH]c(=O)n(C)c1=O	-11	1.77
CC(C)(C)OC(=O)N1CCC2(CC1)N=C(c1cccs1)C(=O)N2Cc1ccccc1	1	-0.13
COc1ccccc1OCC(=O)c1ccc2c(c1)N([C@@H](C)C(=O)NCc1ccccc1)C(=O)CO2	-10	2
O=C(COCc1ccccc1)N1CCCN(c2ccc3nncn3n2)CC1	-5	0.66
Cc1ccsc1CN1CCn2c(nnc2[C@@H]2C[C@@H](O)CN2Cc2cccnc2)C1	7	-1.31
CCN(C)C(=O)c1ccc(-c2ccnn2CC)nc1	-10	0.89
COc1cc(-c2ccnc3nc(CCC4CCCC4)nn23)cc(OC)c1OC	5	-0.69
Cc1nc(NC(=O)NCCN2CCO[C@@H](C)C2)nn1C	3	-0.49
